{"source": "PubChem BioAssay AID686971", "about": "(National Center for Advancing Translational Sciences (NCATS), 2013)", "note": "Screen size: about 360,000 compounds; about 7,500 (2.1%) were called active. The inconclusive results got no clear call from the source; some entries with a clear call stand among them for comparison. Calls come from the whole dose curve; as a rule, active = well fitted cell-killing curve with a large enough effect; inconclusive = small, poorly fitted or top-dose-only effect, or effect the other way, or another doubt; inactive = no such curve, though single readings can be large or run the other way. No potency is given beside an inconclusive call; the fits are too rough. Potency is the fitted concentration of half-maximal effect; tags give direction and shape of the fitted curve."}
{"test": "qHTS for induction of synthetic lethality in tumor cells producing 2HG: qHTS for the HT-1080-IDH1KD cell line;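 for activity, negative = toxicity: 0% = DMSO wells and -100% = cell-free medium wells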", "conditions": "HT-1080 IDH1 knockdown viability, ATP luminescence, 48 h; activity, negative = toxicity: at 46.1 µM (top of the series) unless noted", "summary_of_the_method": "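Viability of IDH1-knockdown HT-1080 fibrosarcoma cells was assessed by CellTiter-Glo after 48 h at 37 °C with titrated compound; concentration-effect curves were classified by fit quality and response size.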"}
{"smiles": "COc1cc2c(cc1OC)C(SC)=NC(C)(C)C2", "Potency": "inconclusive [cytotoxic, single point]"}
{"smiles": "CC(C)(C)OC(=O)N1CCCC(C(=O)Nc2cccc(C(=O)NCc3ccccc3)c2)C1", "note": "(stereo not drawn)", "Potency": "inactive"}
{"smiles": "CCC1(C)Cc2c(sc3nc(NN)n(C)c(=O)c23)CO1", "note": "(stereo not drawn)", "Potency": "inconclusive [cytotoxic, single point]"}
{"smiles": "Cc1ccc(Cl)cc1NC(=O)CC(O)(C(F)(F)F)C(F)(F)F", "Potency": "inconclusive [cytotoxic, single point]"}
{"smiles": "COc1cc(Cl)cc(/C=N\\NC(=O)c2ccc3c(c2)OCO3)c1O", "Potency": "active: 9.2 µM"}
{"smiles": "N#CSC(c1ccccc1)c1nc2ccccc2[nH]c1=O", "note": "(stereo not drawn)", "Potency": "inconclusive [cytotoxic, single point]"}
{"smiles": "O=C(Nc1ccc2nc(-c3cccs3)[nH]c2c1)c1cccs1", "Potency": "inconclusive [cytotoxic, single point]"}
{"smiles": "O=C(CNC(=S)N(Cc1ccccc1)Cc1cccnc1)NC1CCCC1", "Potency": "inactive"}
{"smiles": "CC1CCC(C(C)C)C(OCC(O)CN2CCOCC2)C1", "note": "(stereo not drawn)", "Potency": "inactive"}
{"smiles": "O=C(Nc1ccc2c(c1)OCO2)c1cc(C2CCCN(C(=O)CCc3ccccc3)C2)on1", "note": "(stereo not drawn)", "Potency": "inconclusive [cytotoxic, partial curve]"}
{"smiles": "Cc1ccc(C(=O)Nn2cnc3ccccc3c2=O)cc1C", "Potency": "inactive"}
{"smiles": "COc1ccc(Cl)c(Cn2c(NCc3ccco3)nc3c2c(=O)n(C)c(=O)n3C)c1", "Potency": "inactive"}
{"smiles": "CC1(C)OC(=O)C2=C(C[C@@H](CCc3ccccc3)O[C@H]2C2CCCC2)O1", "Potency": "inactive"}
{"smiles": "C/C(CC(=O)Nc1cccc(C(F)(F)F)c1)=N\\NC(=O)c1ccncc1", "Potency": "inconclusive [cytotoxic, single point]"}
{"smiles": "Cc1ccc(O)c(C(=O)c2cc(C#N)c(=O)n(Cc3ccccc3)c2)c1", "activity, negative = toxicity": "inconclusive: -13.2% [cytotoxic]"}
{"smiles": "Clc1ccc2oc(SCc3cccnc3)nc2c1", "Potency": "inactive"}
{"smiles": "O=C(NCc1ccccc1)c1c(Cl)nc(Cl)c(Cl)c1Cl", "Potency": "active: 7.31 µM"}
{"smiles": "CCOc1ccccc1C(=O)Nc1ccsc1C(=O)OC", "Potency": "inconclusive [cytotoxic, partial curve]"}
{"smiles": "CSc1ccc(CN2CCC2(C)C(=O)NCc2cccs2)cc1", "note": "(stereo not drawn)", "Potency": "inactive"}
{"smiles": "CCOC(=O)c1cnn(-c2cc(Oc3ccccc3)ncn2)c1N", "Potency": "inactive"}
{"smiles": "COc1ccc(/C=C/C(=O)c2cccc(-n3cnnn3)c2)cc1O", "Potency": "inconclusive [cytotoxic, single point]"}
{"smiles": "CCCCCCCC(=O)N/N=C(/C)c1c(O)cc(C)oc1=O", "Potency": "inconclusive [cytotoxic, single point]"}
{"smiles": "CCCc1ccc(C(=O)NNc2cc(Cl)ccc2Cl)cc1", "Potency": "inconclusive [cytotoxic, partial curve]"}
{"smiles": "Cc1nc(Nc2ccc(Cl)cc2)c2oc3ccccc3c2n1", "Potency": "inactive"}
{"smiles": "Cc1cccc(Nc2ccccc2C(=O)NCc2ccco2)c1C", "Potency": "inconclusive [cytotoxic, single point]"}
{"smiles": "O=C(CSc1nnc(-c2ccc3c(c2)OCO3)o1)Nc1ncc(Cl)cc1Cl", "Potency": "inconclusive [cytotoxic, partial curve]"}
{"smiles": "C=C1C(=O)[C@]23C[C@H]1CC[C@H]2[C@]1(C)[C@@H](OC(C)=O)CC[C@@](C)(C(=O)OC)[C@H]1C[C@@H]3OC(C)=O", "Potency": "active: 2.59 µM"}
{"smiles": "Cn1cnnc1SCC(=O)Nc1ccc2ccccc2c1", "Potency": "inactive"}
{"smiles": "O=C1NC[C@H](Cc2ccccc2)N(C[C@H]2CCCN2C[C@H](Cc2ccccc2)N2C[C@H](Cc3ccccc3)N(CCc3ccccc3)C(=O)C2=O)C1=O", "Potency": "inconclusive [cytotoxic, single point]"}
{"smiles": "COC(=O)NNC(=O)/C=C/c1ccccc1", "Potency": "inactive"}
{"smiles": "CCCc1ccc(OCC(=O)NNC(=S)NC(=O)c2ccco2)cc1", "Potency": "inconclusive [cytotoxic, partial curve]"}
{"smiles": "Cc1cc(NC(=O)COC(=O)CSc2nc3cc(Cl)ccc3n2Cc2ccccc2)no1", "activity, negative = toxicity": "inconclusive: -31.6% [cytotoxic]"}
{"smiles": "C(=N\\Nc1nc(-c2ccccc2)cs1)/c1cccnc1", "Potency": "inconclusive [cytotoxic, single point]"}
{"smiles": "Cc1ccccc1OCCOc1ccc([N+](=O)[O-])cc1/C=N/n1cnnc1", "Potency": "active: 4.61 µM"}
{"smiles": "CN(CC(=O)Nc1ccc(Cl)c(Cl)c1)CC(=O)N1CCc2ccccc21", "Potency": "inconclusive [cytotoxic, single point]"}
{"smiles": "O=C(N/N=C/c1cc(Br)ccc1OC(=O)c1ccc(Br)cc1)c1ccncc1", "Potency": "inconclusive [cytotoxic, partial curve, poor fit]"}
{"smiles": "O=C(NNc1cc(Cl)cc(Cl)c1)C1CCC1", "Potency": "inconclusive [cytotoxic, partial curve]"}
{"smiles": "Cc1cccc(N=C2NC(=O)/C(=C/c3cn(C)c4ccccc34)S2)c1", "Potency": "inconclusive [cytotoxic, partial curve]"}
{"smiles": "C=CCN1C(=O)/C(=C/c2ccsc2)SC1=S", "Potency": "inactive"}
{"smiles": "COC1=CC(=O)c2nc(Cl)ccc2C1=O", "Potency": "active: 2.91 µM"}
{"smiles": "C[C@@H](NC(=O)c1nc[nH]c1C(=O)N[C@@H](Cc1ccccc1)C(=O)OC(C)(C)C)c1ccccc1", "Potency": "inconclusive [cytotoxic, single point]"}
{"smiles": "C(=C\\c1ccccc1)/CSc1nnc(-c2ccccc2)n1Cc1ccco1", "Potency": "active: 7.08 µM"}
{"smiles": "CNC(CC(=O)c1ccc([N+](=O)[O-])cc1)C(Cl)(Cl)Cl", "note": "(stereo not drawn)", "Potency": "inconclusive [cytotoxic, single point]"}
{"smiles": "O=[N+]([O-])c1ccc(N2CCN(Cc3cccc([N+](=O)[O-])c3)CC2)cc1", "Potency": "inconclusive [cytotoxic, single point]"}
{"smiles": "CCN(CC)C(=O)Cn1ncc2c1-c1ccccc1OC2", "Potency": "inactive"}
{"smiles": "O=C(/C=C/Nc1ccc(Oc2ccccc2Cl)cc1)c1ccco1", "Potency": "inconclusive [cytotoxic, single point]"}
{"smiles": "Cc1nc(Cl)cc(N/N=C/c2ccc(O)cc2O)n1", "Potency": "inconclusive [cytotoxic, single point]"}
{"smiles": "CCOc1cc(C)c(S(=O)(=O)Nc2ccc3cn[nH]c3c2)cc1C", "Potency": "inactive"}
